We go through 89 molecules from paper PMC4336329 (PLoS ONE, 2015).

Among all 310,000 compounds or so, about 2,200 (0.71%) showed an effect of 50% or more. Effects have a minus sign here. The list shows a part of the results.

The target of this test is human ether-à-go-go-related gene (hERG) potassium channel (human, UniProt Q12809). The experiment in a line: primary screen, population patch clamp on CHO cells stably expressing hERG.
Sequence of human ether-à-go-go-related gene (hERG) potassium channel (Q12809 whole entry, looked up): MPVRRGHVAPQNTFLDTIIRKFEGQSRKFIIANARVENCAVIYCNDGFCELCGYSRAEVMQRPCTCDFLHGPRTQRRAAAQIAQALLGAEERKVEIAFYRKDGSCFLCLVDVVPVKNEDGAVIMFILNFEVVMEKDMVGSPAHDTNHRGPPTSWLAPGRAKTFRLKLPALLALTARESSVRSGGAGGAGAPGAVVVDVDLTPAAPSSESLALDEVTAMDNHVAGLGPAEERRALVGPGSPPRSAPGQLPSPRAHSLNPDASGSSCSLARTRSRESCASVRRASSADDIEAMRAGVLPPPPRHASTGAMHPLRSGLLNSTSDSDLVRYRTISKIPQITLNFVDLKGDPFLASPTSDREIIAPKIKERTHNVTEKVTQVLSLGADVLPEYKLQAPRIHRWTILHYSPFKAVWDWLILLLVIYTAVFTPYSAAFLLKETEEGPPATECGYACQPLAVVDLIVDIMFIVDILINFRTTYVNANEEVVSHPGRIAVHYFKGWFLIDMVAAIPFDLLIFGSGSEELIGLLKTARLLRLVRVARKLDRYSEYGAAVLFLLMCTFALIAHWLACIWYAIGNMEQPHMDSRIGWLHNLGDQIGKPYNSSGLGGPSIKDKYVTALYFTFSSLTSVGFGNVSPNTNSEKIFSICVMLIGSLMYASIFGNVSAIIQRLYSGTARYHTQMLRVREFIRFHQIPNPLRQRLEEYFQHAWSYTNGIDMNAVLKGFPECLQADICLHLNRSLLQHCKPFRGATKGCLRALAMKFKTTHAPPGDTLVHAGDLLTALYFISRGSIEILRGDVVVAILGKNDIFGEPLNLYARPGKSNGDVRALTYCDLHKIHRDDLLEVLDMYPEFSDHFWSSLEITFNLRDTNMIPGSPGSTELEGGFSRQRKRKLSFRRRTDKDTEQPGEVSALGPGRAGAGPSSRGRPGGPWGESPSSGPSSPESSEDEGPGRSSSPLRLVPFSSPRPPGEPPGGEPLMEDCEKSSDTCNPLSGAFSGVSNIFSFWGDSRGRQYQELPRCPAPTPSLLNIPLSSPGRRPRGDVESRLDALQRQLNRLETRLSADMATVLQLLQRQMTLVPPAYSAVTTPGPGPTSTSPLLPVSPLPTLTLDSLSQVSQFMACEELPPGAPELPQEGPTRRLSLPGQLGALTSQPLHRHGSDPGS
For the molecule `COc1ccc2c(c1)CCCC21SC(NC(C)=O)=NN1C(C)=O` (centres unmarked), the “hERG current change (%, negative = inhibition) at 1uM” value came to 11.3%.
The result for `CC1CCC(NC(=O)CSc2nncs2)CC1` (centres unmarked) reads 4.93%; that for `O=S(=O)(NC1CN2CCC1CC2)c1ccc(Cl)cc1` (centres unmarked), 13.1%.
For `CCN(CC)CCOC(=O)c1ccc(N/C=C(/C#N)c2nc(-c3ccc4c(c3)OCO4)cs2)cc1` the value was 12.3%.
As to `CCOc1cc2c(cc1C=O)OC(C)C2` (centres unmarked), the “hERG current change (%, negative = inhibition) at 1uM” value is on record as 11.1%.
For `CCOC(=O)N1CCN(C(=O)COc2cc(=O)n(C)c3ccccc23)CC1`, the “hERG current change (%, negative = inhibition) at 1uM” value is reported as -0.465%.
For `Nc1cc(N)nc(SCC(=O)Nc2ccc3c(c2)OCO3)n1` the value was 6.41%.
For `Cc1ccc(C(=O)N2CCc3ccccc32)o1` the value was 14.9%; for `Cc1ccc(Nc2cc(-n3nc(C)cc3C)ncn2)c(C)c1`, 5.93%; for `O=C(C[n+]1ccccc1)N/N=C/c1cc(Br)cc(Br)c1O.[Cl-]`, 5.48%.
`COc1cc(S(=O)(=O)N(Cc2ccccc2)Cc2ccccn2)ccc1-n1cnnn1`: the “hERG current change (%, negative = inhibition) at 1uM” value is reported as 5.68%.
For `O=C(NCc1cccc(C(F)(F)F)c1)C1CC2Cn3c(nc4ccccc43)C2N1Cc1ccccc1` (centres unmarked) the value was 6.92%.
In the case of `Cn1ncc(Cl)c1C(=O)N1CCC(Cc2ccccc2)CC1`, the “hERG current change (%, negative = inhibition) at 1uM” value is 0.0461%.
The result for `O=C(NCc1ccco1)c1cc(S(=O)(=O)N2CCOCC2)ccc1Br` reads 12.1%; that for `COc1ccccc1-n1c(Cc2cccs2)n[nH]c1=S`, 18.9%; that for `CCN(C1CCS(=O)(=O)C1)S(=O)(=O)c1cc(C)ccc1C` (centres unmarked), 2.05%.
For `CCOC(=O)c1cn(C2CC2)c2c(F)c(NCCCN(C)C)c(F)cc2c1=O` the value was 15.2%; for `CC1(OC(=O)C2CCCC2)C(=O)C=C2C=C(c3ccsc3)N(CCc3ccccn3)C=C2C1=O` (centres unmarked), 7.11%; for `Cc1ccc(C(=O)NNC(=O)c2cccnc2SCc2cccc([N+](=O)[O-])c2)cc1`, 16.7%.
Regarding `CN(C)S(=O)(=O)c1ccc(N2CCCC2)c(C(=O)NCc2cccc(C(F)(F)F)c2)c1`, the “hERG current change (%, negative = inhibition) at 1uM” value is 17.4%.
Consider `O=C(NC1CCCC1)C(c1c[nH]c2ccccc12)N(C(=O)Cn1nnc(-c2ccc(Cl)cc2)n1)c1ccccc1` (centres unmarked), for which the “hERG current change (%, negative = inhibition) at 1uM” value came out at 1.15%.
Turning to `Cc1ccc(C)c(NC(=O)COC(=O)c2c(C)nn(-c3ccccc3)c2C)c1`, the “hERG current change (%, negative = inhibition) at 1uM” value is 4.83%.
For `COc1cc(/C=C/c2cc[n+](C)cc2)ccc1OCC(=O)Nc1ccccc1.[I-]` the value was 8.71%.
For `Cc1cc(C(=O)OCC(=O)N2CC(=O)Nc3ccccc32)c(C)n1-c1ccccc1` the value was 15.4%; for `COc1ccc(-c2csc(NC(=O)c3ccco3)n2)cc1.Cl`, 3.82%; for `COc1ccc(Cl)cc1C(=O)Nc1ccc(NC(=O)c2ccco2)cc1`, 14.5%.
For `CNC(=O)NC(O)C(Cl)(Cl)Cl` (centres unmarked), the “hERG current change (%, negative = inhibition) at 1uM” value is on record as 20.7%.
Regarding `Cc1ncc(CO)c(/C=N/Nc2ccc(C(F)(F)F)cn2)c1O`, the “hERG current change (%, negative = inhibition) at 1uM” value came out at 8.09%.
For `Cn1ncc2c(NCc3ccccc3)nc(NCCCO)nc21` the value was 10.9%; for `O=S(=O)(Cc1nnnn1-c1ccccc1)c1ccc(F)cc1`, 0.494%.
For `Clc1ccc(-n2nnnc2Sc2ncnc3sccc23)cc1` the value was 10.9%; for `Cc1ccsc1CNC12CC3CC(CC(C3)C1)C2.Cl`, 14.4%.
The result for `Cc1c(C(=O)N2CCN(C(c3ccccc3)c3ccccc3)CC2)oc2ccccc12` reads 15.8%.
Consider `Cc1ccc(Nc2nc(Cl)c(C=O)s2)cc1`, for which the “hERG current change (%, negative = inhibition) at 1uM” value is -10.9%.
For `O=C(c1ccccc1)c1ccc(Oc2ccc(C(=O)O)c(C(=O)O)c2)cc1` the value was 11.9%; for `Cc1cc(C)nc(SCC(=O)NN)n1`, 12.7%.
The result for `Cc1cccc(NC2SC(=O)NC2=O)c1` (centres unmarked) reads 6.83%; that for `CCOCCCNCc1ccc(OC)c(OC)c1.O=C(O)C(=O)O`, 8.45%; that for `O=C(CN1C(=O)NC2(CCCC2)C1=O)Nc1cc(C(F)(F)F)ccc1N1CCCCC1`, 7.93%.
For `C=CCNC(=O)c1ccc(C2SCC(=O)N2Cc2ccco2)cc1` (centres unmarked) the value was -4.36%; for `N#CCn1cc(/C=N/NC(=O)c2cc3c(ccc4ccccc43)o2)c2ccccc21`, 11.3%; for `O=C(NCc1ccc(Cl)cc1)c1cnccn1`, 6.08%.
For the molecule `CCOc1ccccc1N1CCN(S(=O)(=O)c2cccc3nsnc23)CC1`, the “hERG current change (%, negative = inhibition) at 1uM” value is -10.2%.
The result for `O=C1CN(C(=O)COC(=O)c2ccc[n+]([O-])c2)c2ccccc2N1` reads 13%; that for `Cc1cccc(Nc2ccc([N+](=O)[O-])cn2)c1`, 7.32%; that for `NC(=O)c1ccccc1OCC(=O)Nc1ccc(Cl)c(Cl)c1`, 7.8%.
On to `CN(C)S(=O)(=O)c1ccc(C(=O)N2CCN(C(=O)C3CCCO3)CC2)cc1` (centres unmarked), for which the “hERG current change (%, negative = inhibition) at 1uM” value stood at 9.98%.
For `O=C(CSc1nnc(-c2ccncc2)n1Cc1ccco1)N1c2ccccc2Sc2ccc(Cl)cc21` the value was 8.3%.
The result for `CC(=O)NS(=O)(=O)c1ccc(NC(=O)CC23CC4CC(CC(Br)(C4)C2)C3)cc1` reads 21.7%; that for `Cn1ncc(C(N)=O)c1NC(=S)NC(=O)c1ccc(Br)o1`, 14.3%; that for `COc1ccc(C(=O)N2CCC(C(=O)Nc3ccc(OC)c(OC)c3)CC2)cc1`, 10.7%.
As for `CCOC(=O)C1=NNC2C(=O)N(Cc3ccccc3)C(=O)C12` (centres unmarked), the “hERG current change (%, negative = inhibition) at 1uM” value is recorded as 8.04%.
The result for `CCN(CC)c1ccc(S(=O)(=O)N2CCOCC2)cc1NC(=O)CSc1ccccc1` reads 10.5%; that for `O=C(c1cccc(Cl)c1)N1CCN(Cc2ccccc2F)CC1`, 14.6%; that for `CSc1ccc(S(=O)(=O)NCC(=O)OCC(=O)N2CCCC2=O)cc1[N+](=O)[O-]`, 1.29%.
For the molecule `O=C(O)CCCCCCCCc1cn(CN2C(=O)c3ccccc3C2=O)nn1`, the “hERG current change (%, negative = inhibition) at 1uM” value is reported as 9.38%.
Turning to `Nc1nc(-c2ccccc2)c(-c2ccccc2)o1`, the “hERG current change (%, negative = inhibition) at 1uM” value came to 12%.
As to `Cc1nn(-c2ccccc2)c(Cl)c1/C=N/Nc1nnc(C)c(=O)[nH]1`, the “hERG current change (%, negative = inhibition) at 1uM” value was 9.84%.
On to `CCOC(=O)N1CCc2c(sc3[nH]c(=S)[nH]c(=S)c23)C1`, for which the “hERG current change (%, negative = inhibition) at 1uM” value turned out to be 12.6%.
For `CCOc1ccc(OCC(=O)OCc2cc(=O)n3cc(Br)ccc3n2)cc1` the value was 8.5%; for `CCOc1ccc(NC(=O)CSc2nnnn2C2CC2)cc1S(=O)(=O)N1CCCC1`, 5.29%; for `COc1ccccc1Cn1c(-c2ccccc2OC)nc2ccccc21`, 9.13%.
Take `O=C(Nc1ccc(F)cc1)c1cccc(N2C(=O)C3C4C=CC(C5CC45)C3C2=O)c1` (centres unmarked): the “hERG current change (%, negative = inhibition) at 1uM” value is 4.83%.
The result for `CCOC(=O)c1c(-c2cccs2)csc1NC(=O)CSc1ncn[nH]1` reads 10.2%; that for `O=C(NCC1CCCO1)c1nn2c(C(F)(F)F)cc(-c3ccc(Br)o3)nc2c1Br` (centres unmarked), 2.69%; that for `Cc1ccc(CNC(=O)c2ccccc2NC(=O)CN2CCN(C)CC2)cc1`, -24.7%.
For `O=C(Nc1ccc(OC(F)F)c(Cl)c1)c1cccc(OC(F)F)c1` the value was -31.6%.
For `CN(C(=O)COC(=O)c1ccccc1Cc1ccccc1)c1c(N)n(Cc2ccccc2)c(=O)[nH]c1=O` the value was 18.1%; for `O=C1CCSc2ccc(Cl)cc2N1Cc1ccc(Cl)cc1`, 9.72%.
With `CCSc1nc(N)c2c(C)c(C)sc2n1`, the “hERG current change (%, negative = inhibition) at 1uM” value is recorded as -1.83%.
In the case of `CC1=C(C(=O)NCc2ccccc2)C(c2cccnc2)n2ncnc2N1` (centres unmarked), the “hERG current change (%, negative = inhibition) at 1uM” value was determined as 8.67%.
For `CCn1c(COc2ccccc2C)nnc1SCC(=O)NCc1ccccc1` the value was 2.58%.
For `CCCCn1cnc2c(=S)nc(N)[nH]c21` the value was 10.8%; for `COc1ccc(C(=O)NCc2nnc(SCC(=O)NC3=NCCS3)n2C)cc1`, 5.54%; for `Cc1nc(N2CCN(c3ccccc3F)CC2)[nH]c(=O)c1C`, 17.4%.
For `CCN(CC)S(=O)(=O)c1ccc(C)c(NC(=O)COC(=O)C=C(C)C)c1` the value was 10.6%; for `O=C(CN1CCN(C(=O)c2ccco2)CC1)Nc1ccccc1-c1ccccc1`, -15.7%.
Take `O=C1N/C(=C\c2ccc(N3CCOCC3)c(F)c2)C(=O)N1Cc1ccccc1`: the “hERG current change (%, negative = inhibition) at 1uM” value came out at 20%.
For the molecule `Cc1cc(C)cc(NC(=O)CN2CCN(c3ccccc3)CC2)c1`, the “hERG current change (%, negative = inhibition) at 1uM” value came to 11.2%.
`CCOC(=O)Cc1csc(NS(=O)(=O)c2ccc(C(F)(F)F)cc2)n1`: the “hERG current change (%, negative = inhibition) at 1uM” value was 16.1%.
The result for `O=c1c2c(-c3ccc(Cl)cc3)csc2nc2n1CCC2` reads -6.3%; that for `CC1CN(C(=O)CCC(=O)NCc2ccccc2)c2cc(Cl)ccc2O1` (centres unmarked), 0.521%; that for `COc1c(Cl)cc(C(=O)Nc2ccccc2C(=O)O)cc1Cl`, 15.7%.
The result for `COc1ccccc1CNS(=O)(=O)c1ccc(-c2cc(C)no2)cc1` reads 16%; that for `CCOc1ccc(CCNC(=O)C2CC(=O)N(CCc3ccccc3)C2)cc1OCC` (centres unmarked), 15.7%; that for `CCC(=O)Nc1ccc2c(c1)ncn2CCc1ccccc1`, 8.64%.
Regarding `COC(=O)N1CCN(S(=O)(=O)c2ccc(F)cc2)CC1`, the “hERG current change (%, negative = inhibition) at 1uM” value amounted to 0.95%.
Regarding `O=C(Nc1ccc(F)cc1F)c1ccc2c(c1)OCCO2`, the “hERG current change (%, negative = inhibition) at 1uM” value is 27.6%.
For `Cc1ccccc1NC(=O)CNc1ccccc1C(=O)NCc1ccco1` the value was 11.3%.
